No constants are given. Whether binding was seen depends on the method and setting. Binding seen in cells or lysates may run through a third protein. Some results given as binding are weak or reduced against the parent protein; the word gives no strength. For some of these results: Where a sequence is shown, tags or fusion partners need not be part of it.

Assay [1] concerns the target T1, FLAG-tagged full length ARMC12 (armadillo repeat-containing 12) (mouse) (UniProt Q80X86).
T1 sequence: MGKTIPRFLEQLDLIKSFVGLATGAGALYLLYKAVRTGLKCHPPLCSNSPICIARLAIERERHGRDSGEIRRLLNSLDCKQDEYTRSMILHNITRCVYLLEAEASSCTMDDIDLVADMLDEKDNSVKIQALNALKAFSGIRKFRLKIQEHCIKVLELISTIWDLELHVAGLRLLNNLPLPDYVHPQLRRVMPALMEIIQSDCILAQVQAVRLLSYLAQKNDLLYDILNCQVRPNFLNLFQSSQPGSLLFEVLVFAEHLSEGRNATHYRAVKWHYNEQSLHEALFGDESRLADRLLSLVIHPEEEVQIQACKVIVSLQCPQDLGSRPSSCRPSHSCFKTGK
Put plainly: co-IP; lysates of HEK293T cells transfected with FLAG-tagged ARMC12 (full length or truncated); immunoprecipitation with anti-FLAG antibody; immunoblot for the endogenous partner. A general note: A western blot detects proteins with antibodies after separation by electrophoresis.

The target in assay [2] is T2, FIS1 (endogenous, mouse testicular germ cells) (mouse (endogenous in testicular germ cells)) (UniProt Q9CQ92).
T2 sequence: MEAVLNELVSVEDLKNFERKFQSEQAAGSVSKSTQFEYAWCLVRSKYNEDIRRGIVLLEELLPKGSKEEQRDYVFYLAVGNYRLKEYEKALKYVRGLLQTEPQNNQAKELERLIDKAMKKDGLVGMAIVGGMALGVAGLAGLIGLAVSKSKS
Put plainly: co-IP; lysates of WT or FLAG-tagged Armc12 KI mouse TGC; immunoprecipitation with anti-FIS1 antibody, IgG as negative control; Western blot with anti-TBC1D15 and TBC1D21 antibodies.

Assay [3] deals with T3, FLAG-tagged ARMC12 from Armc12-FLAG knock-in mice (mouse) (UniProt Q80X86).
T3 sequence: T1 sequence
Put plainly: co-IP; lysates of testicular germ cells (TGC) from WT or FLAG-tagged Armc12 KI mice; immunoprecipitation with anti-FLAG antibody; Western blot.

B1: OCIAD1 (endogenous, HEK293T) (protein, UniProt Q9NX40 1-245)
chain: MNGRADFREPNAEVPRPIPHIGPDYIPTEEERRVFAECNDESFWFRSVPLAATSMLITQGLISKGILSSHPKYGSIPKLILACIMGYFAGKLSYVKTCQEKFKKLENSPLGEALRSGQARRSSPPGHYYQKSKYDSSVSGQSSFVTSPAADNIEMLPHYEPIPFSSSMNESAPTGITDHIVQGPDPNLEESPKRKNITYEELRNKNRESYEVSLTQKTDPSVRPMHERVPKKEVKVNKYGDTWDE
For the molecule B1, in assay [1], the binding entry is listed as “no binding”.

B2: TBC1D15 (endogenous, mouse testicular germ cells) (protein, UniProt Q9CXF4 1-671)
chain: MAAAGVVSGKIIYEQEGVYIHSSCGKANDQDSLISGILRVLEKDAEVIVDWRPLDDALDSSSILCAGKDSSSVVEWTQAPKERAHRGSDQQSSYEAEWDMVTTVSFKKKPHTNGDAPGHRNGKSKWSFLFSLADLKSVKQSKEGMGWSYLVFCLKDDVMLPALHFHQGDSKLLIESLEKYVVLCESPQDSRTLLVNCQNKSLSQSFENLLDEPAYGLIQKIKKDPYTATMVGFSKVTNYIFDSLRGSDPSTHQRPPSEMADFLSDAIPGLKINQQEEPGFEVITRIDLGERPVVQRREPVSLEEWNKSLDPEGRLVAVESMKQKIFRGGLSHSLRKQAWKFLLGYFPWDSTKEERTQLQKQKTDEYFRMKLQWKSVSEAQEKRNSRLRDYRSLIEKDVNRTDRTNKFYEGQDNPGLILLHDILMTYCMYDFDLGYVQGMSDLLSPLLYVMENEVDAFWCFASYMDQMHQNFEEQMQGMKTQLIQLSTLLRLLDSGFCSYLESQDSGYLYFCFRWLLIRFKREFSFLDILRLWEVMWTELPCKNFHLLLCCAILESEKQQIMAKHYGFNEILKHINELSMKIDVEDILCKAEAISLQMAQCKELPQAVCEILGLQDSEITTPDSDTDENVGSPCPVSAFPSSTLPILAASEAKDDSPTQTLASPNACRLTPA
For B2, the binding result in assay [2] and in assay [3] was “no binding” in each case.

B3: TBC1D15 (endogenous, HEK293T) (protein, UniProt Q8TC07 1-691)
chain: MAAAGVVSGKIIYEQEGVYIHSSCGKTNDQDGLISGILRVLEKDAEVIVDWRPLDDALDSSSILYARKDSSSVVEWTQAPKERGHRGSEHLNSYEAEWDMVNTVSFKRKPHTNGDAPSHRNGKSKWSFLFSLTDLKSIKQNKEGMGWSYLVFCLKDDVVLPALHFHQGDSKLLIESLEKYVVLCESPQDKRTLLVNCQNKSLSQSFENLLDEPAYGLIQAGLLDRRKLLWAIHHWKKIKKDPYTATMIGFSKVTNYIFDSLRGSDPSTHQRPPSEMADFLSDAIPGLKINQQEEPGFEVITRIDLGERPVVQRREPVSLEEWTKNIDSEGRILNVDNMKQMIFRGGLSHALRKQAWKFLLGYFPWDSTKEERTQLQKQKTDEYFRMKLQWKSISQEQEKRNSRLRDYRSLIEKDVNRTDRTNKFYEGQDNPGLILLHDILMTYCMYDFDLGYVQGMSDLLSPLLYVMENEVDAFWCFASYMDQMHQNFEEQMQGMKTQLIQLSTLLRLLDSGFCSYLESQDSGYLYFCFRWLLIRFKREFSFLDILRLWEVMWTELPCTNFHLLLCCAILESEKQQIMEKHYGFNEILKHINELSMKIDVEDILCKAEAISLQMVKCKELPQAVCEILGLQGSEVTTPDSDVGEDENVVMTPCPTSAFQSNALPTLSASGARNDSPTQIPVSSDVCRLTPA
Regarding B3, in assay [1], the binding result is given as “binds”.

B4: GK2 (protein, UniProt Q9WU65 1-554)
chain: MAASKQTSAGPLVGAVVQGTNSTRFLVFNSKTAELVCSHQVELTQEYPKEGWVEQDPKEILKSVYECIAKACEKLAEVNIDISNIKAIGVSNQRETTVVWDKFTGDPLYNAVVWLDLRTQSTVETLTKKIPGNSNFVKSKTGLPLSTYFSAVKLRWMLDNLRPIQKAVEEGRAMFGTIDSWLIWCMTGGVNGGIHCTDVTNACRTMLFNIHSLEWDKDLCDFFEIPMSILPNVCSSSEIYGLMTSGALEGVPISGCLGDQSAALVGQMCFHEGQAKNTYGTGCFLLCNTGQKCVFSEHGLLTTLAYKLGKNKPVFYALEGSVAIAGAVIRWLRDNFEIITTSGEVENLAREVGTSYGCYFVPAFSGLYAPYWEPSARGIICGLTQFTNKCHIAFAALEAVCFQTREILDAMNRDCGIPLSHLQVDGGMTNNRILMQLQADILHIPVVKSVMPETTALGAAMAAGAAEGVNVWSLEPEDLSTILMERYEPQIQATESEIRFSTWKRAVMKSMGWVTAKDPENGDNPVFSCLPLGFFIVSSMTLLIGARCVSTAEE
On to B4, for which the binding entry in assay [3] is given as “binds”.

B5: TBC1 domain family member 21 (TBC1D21) (protein, UniProt Q9D9D3 1-336)
chain: MTTLSPENSLSARRSATFILEKRNPPIDKAEWDSFFDENGHLAKSRDFICINILERGLHPFVRTEAWKFLTGYYSWQSSRDERLMVDSNRRRNYNSLCQMYEKIQPLLENLHGNFTETRNNIAYDIQRLYDKDPLGNVLIDKKKLEKTLLLSYVCNTKAEYQRGFHEMVMLFQLMVEHDHETFWLFQFFLQKTEHSCVINIGVGKNLDMLNSLITLLDPEFAEHLKGKGSGAVQSLFPWFCLCFQRAFKTFDDVWRLWEVLLTGKPCRNFQVLVAYSMLQMVREQALLECMSGDAILMACNNLIDLDADELISAACVVYSELMQKEVPQPLKEFLL
Take B5: the binding result is listed as “no binding” in assay [2] and “binds” in assay [3].

Source of the values: publication PMC8017931.
